Among all 310,000 compounds or so, about 14,000 (4.5%) showed an effect of 50% or more. Effects have a minus sign here. The list shows a part of the results.
Each compound was assayed against human ether-à-go-go-related gene (hERG) potassium channel (human, UniProt Q12809) (assay: primary screen, population patch clamp on CHO cells stably expressing hERG).
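Further: peak tail current of the secondary pulse compared with the same well before compound.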

Sequence of human ether-à-go-go-related gene (hERG) potassium channel (Q12809 whole entry, looked up): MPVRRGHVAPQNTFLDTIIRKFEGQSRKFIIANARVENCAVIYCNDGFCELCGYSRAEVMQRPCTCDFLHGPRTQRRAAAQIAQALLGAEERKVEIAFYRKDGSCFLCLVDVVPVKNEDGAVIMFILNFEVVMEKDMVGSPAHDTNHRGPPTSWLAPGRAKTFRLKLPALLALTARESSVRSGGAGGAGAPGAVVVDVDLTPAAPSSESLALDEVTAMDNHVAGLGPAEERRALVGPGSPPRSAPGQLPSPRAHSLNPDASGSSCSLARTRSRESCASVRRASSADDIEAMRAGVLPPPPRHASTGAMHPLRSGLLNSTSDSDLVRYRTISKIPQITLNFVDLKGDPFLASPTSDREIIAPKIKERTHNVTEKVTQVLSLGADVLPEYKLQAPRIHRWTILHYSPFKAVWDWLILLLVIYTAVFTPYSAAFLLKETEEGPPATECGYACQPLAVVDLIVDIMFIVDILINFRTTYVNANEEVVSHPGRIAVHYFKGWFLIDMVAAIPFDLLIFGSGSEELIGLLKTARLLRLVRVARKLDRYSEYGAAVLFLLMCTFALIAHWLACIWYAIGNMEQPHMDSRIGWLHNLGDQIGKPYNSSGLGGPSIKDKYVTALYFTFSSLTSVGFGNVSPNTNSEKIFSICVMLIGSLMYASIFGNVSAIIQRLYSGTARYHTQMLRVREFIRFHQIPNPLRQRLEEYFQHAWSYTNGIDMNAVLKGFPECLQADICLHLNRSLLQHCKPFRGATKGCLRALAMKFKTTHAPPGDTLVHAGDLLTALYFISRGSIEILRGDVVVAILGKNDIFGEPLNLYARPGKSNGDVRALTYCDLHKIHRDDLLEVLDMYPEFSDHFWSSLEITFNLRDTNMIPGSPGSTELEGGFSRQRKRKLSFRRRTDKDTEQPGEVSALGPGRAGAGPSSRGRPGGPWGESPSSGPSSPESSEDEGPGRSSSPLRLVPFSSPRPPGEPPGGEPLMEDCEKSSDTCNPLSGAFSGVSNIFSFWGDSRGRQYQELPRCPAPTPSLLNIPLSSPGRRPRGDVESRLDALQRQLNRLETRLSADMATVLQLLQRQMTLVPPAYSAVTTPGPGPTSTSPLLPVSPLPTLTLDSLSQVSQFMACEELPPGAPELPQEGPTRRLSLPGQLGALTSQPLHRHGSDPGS

SMILES | hERG current change (%, negative = inhibition) at 10uM [%]
Cc1cc(NC(=O)C(C)SCC(=O)OCC(=O)N(C)c2ccccc2)no1 (stereo not drawn) | -7
Cc1ccc([N+](=O)[O-])c(-c2n[nH]c(=S)n2-c2cccc(Cl)c2)c1 | 25.6
CN(C)/C=C/c1onc(-c2c(Cl)cccc2Cl)c1C#N | 9.38
CCCC(=O)Nc1sc(C)c(-c2ccc(C(C)CC)cc2)c1C#N (stereo not drawn) | 3.7
CCOC(=O)N1CCN(C(=O)CSc2nc3c(cnn3-c3ccccc3)c(=O)[nH]2)CC1 | -26.6
Cn1c(-c2ccc[nH]c2=O)nc2cc(Cl)ccc21 | 16.8
NC(=O)CC(NC(=O)Cc1ccc(Br)cc1)c1ccc(NC2CCCC2)c([N+](=O)[O-])c1 (stereo not drawn) | 3.17
O=C(COC(=O)C1CCN(c2ccc(C(F)(F)F)cn2)CC1)NCc1ccccc1 | -3.43
CCC(=O)N1CC(=O)Nc2ccc(F)cc2C1c1ccccc1 (stereo not drawn) | 8.81
COCCNS(=O)(=O)c1ccc(F)c(OC)c1 | 8.65
Cc1c(C(=O)OC(C)C)nnn1-c1nonc1N | 12.2
COC(c1ccccc1)c1nnc(CCC(=O)N2CCN(C3CCCC3)CC2)o1 (stereo not drawn) | -36.6
Cc1nn(-c2ccc(F)cc2)c(Cl)c1/C=C/C(=O)OCC(=O)Nc1c(F)c(F)c(F)c(F)c1F | 11.3
Cc1ccc(NC(=O)C2CC(=O)N(C(C)C)C2)cc1C (stereo not drawn) | 13.1
Cc1cccc(N2CCN(S(=O)(=O)c3ccc4c(c3)CC(=O)N4C)CC2)c1C | 14.1
O=C(c1cccc(S(=O)(=O)N2CCN(c3ccccc3)CC2)c1)N1CCCCCCC1 | -33.4
COc1ccc(-n2c(SCC(=O)Nc3ccc4c(c3)OCO4)nc3ccccc3c2=O)cc1 | -12.1
COc1ccc(N2CCN(C(=O)CCc3c[nH]c4ccccc34)CC2)cc1 | -10.2
Cc1ccccc1-c1nnc(SCC(=O)NC2CCCC2)n1C | -3.57

SMILES | hERG current change (%, negative = inhibition) at 10uM [%]
Clc1ccc2[nH]c3c(N4CCC5(CC4)OCCO5)ncnc3c2c1 | -36.2
CC(C)C[C@H](NC(=O)OC(C)(C)C)C(=O)N/N=C/c1ccc2nccnc2c1 | -4.45
NS(=O)(=O)c1ccc2c(c1)C1C=CCC1C(C1CC=CCC1)N2 (stereo not drawn) | 16.1
Cc1cccnc1NC(=O)c1cccc(S(=O)(=O)N2CCCC2)c1 | -8.13
COc1cc(NC(=O)COC(=O)c2ccccc2F)cc(OC)c1 | 9.49
Cc1ccc(S(=O)(=O)NNC(=O)c2cc([N+](=O)[O-])c(C)c([N+](=O)[O-])c2)cc1 | 10.2
CCC(C(=O)c1ccccc1)P(=O)(NN)c1ccccc1 (stereo not drawn) | 13.3
O=C(Nc1nc(-c2ccncc2)cs1)c1ccc(F)cc1 | 11.5
CN(C(=O)Cn1cnc([N+](=O)[O-])n1)C1CCCCC1 | 26.4
COC(=O)c1sc(NC(=S)NC(=O)c2ccccc2)nc1C | 0.156
Cn1c(Cc2ccccc2)nnc1SCC(=O)NC1CCCCC1 | 12
CC1(C)S[C@@H]2[C@H](NC(=O)[C@H](N)c3ccccc3)C(=O)N2[C@H]1C(=O)OC1OC(=O)c2ccccc21.Cl (stereo partly drawn) | -2.16
CCOC(=O)CN1CC23C=CC(O2)C(C(=O)NCc2cccs2)C3C1=O (stereo not drawn) | 6.91
CCN1C(=O)c2cccc3c(S(=O)(=O)Nc4ccccc4OC)ccc1c23 | -4.84
COc1ccccc1-n1c(SCC(=O)NC(C)(C)C)nnc1-c1ccco1 | -8.41
COc1ccc(C(=O)NCCc2nc3cc([N+](=O)[O-])ccc3n2C)cc1 | -39.9
COc1cc(C)ccc1OCCOc1ccccc1Cl | 18.7
CCc1nnc(NS(=O)(=O)c2ccc(NC(=S)NC(=O)/C=C/c3ccc([N+](=O)[O-])cc3)cc2)s1 | 32.3
N/C(=N\OC(=O)Cc1cccc2ccccc12)c1ccccn1 | 10.1

SMILES | hERG current change (%, negative = inhibition) at 10uM [%]
Nn1c(-c2cccc([N+](=O)[O-])c2)nc2ccccc2c1=O | 5.63
CCOC(=O)N1CCN(C(=O)C(C)c2ccc([N+](=O)[O-])cc2)CC1 (stereo not drawn) | -10.1
Cc1c(Cl)cccc1NC(=O)NCc1ccc(F)cc1 | 20
COc1cc(C)nn1-c1ccc(Cl)cc1 | 7.72
COc1ccc(S(=O)(=O)NCc2cccnc2)cc1C(=O)NC1CCCCC1 | 4.41
Cc1ccc(S(=O)(=O)NC(=O)c2cc(C)n(-c3ccccc3)c2C)cc1 | -0.15
COc1cccc(Cn2c(-c3cccs3)noc2=O)c1 | -27.1
CCc1cccc(NC(=O)c2cccc3c2C(=O)N(CC2CCCO2)C3)c1 (stereo not drawn) | -72.2
C/C(=N\NC(=S)NC(C)C)c1ccc(C(C)(C)C)cc1 | 11.1
CCn1c(SCC(N)=O)nc2sc3c(c2c1=O)CCCC3 | 1.24
COc1ccccc1NC(=O)c1cc(=O)[nH]c2ccccc12 | 33.4
CC(=O)c1c(C)[nH]c(C(=O)N2c3ccccc3CC2C)c1C (stereo not drawn) | 5.33
COC(=O)c1ccccc1SC1CC(=O)N(c2ccccc2)C1=O (stereo not drawn) | 7.24
O=C(O)c1ccnc(Cl)c1 | 3.44
Cl.O=C(O)CSc1nc(-c2ccccc2)c(-c2ccccc2)[nH]1 | -3.18
Cc1cc(Sc2nc(NC(C)(C)C)nc(N3CCOCC3)n2)nc(Cl)n1 | 15.1
COc1ccc(OC)c(NC(=O)c2ccccc2SC)c1 | -40.2
Nc1c(Nc2ccccc2)c2ccccc2oc1=O | -4.79
CCn1cc([N+](=O)[O-])c(C(=O)N2N=C(c3ccc(Cl)c(Cl)c3)CC2c2ccccc2O)n1 (stereo not drawn) | 23.4
